In article PMC12136788:
The list shows a part of the results.

T1: UNK ZnF1-6 (called full-length) (human, UniProt Q9C0B0 30-357)
T1 sequence: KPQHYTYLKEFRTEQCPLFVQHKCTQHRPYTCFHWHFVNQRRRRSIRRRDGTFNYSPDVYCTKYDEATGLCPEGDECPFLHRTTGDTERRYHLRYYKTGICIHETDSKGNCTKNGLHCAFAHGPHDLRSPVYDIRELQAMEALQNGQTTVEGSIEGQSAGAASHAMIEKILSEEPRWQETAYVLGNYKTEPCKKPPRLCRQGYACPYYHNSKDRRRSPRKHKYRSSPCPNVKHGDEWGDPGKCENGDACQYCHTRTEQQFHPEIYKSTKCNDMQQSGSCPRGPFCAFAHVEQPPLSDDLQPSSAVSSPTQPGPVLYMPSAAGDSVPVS

B1: chr5:96979339:96979440:+|CDS|ENSG00000113441|unk|FALSE|bound_elsewhere (ssRNA)
RNA: GGGAGUUCUACAGUCCGACGAUCGAGGAGGAUGAAGAGGAUUAUGAGUCAUCAGCAAAGCUGCUGGGCAUGUCCUUCAUGAAUAGAAGCUCAGGCCUUCGGAACAGUGCAACUGGUUACAGGCAGAGCCCAGAUGGGGCUUGUCAACAGAGGAUUGAGCAUCA
B2: chr12:96953524:96953626:+|3pUTR|ENSG00000139350|unk|total|mutant (ssRNA)
RNA: GGGAGUUCUACAGUCCGACGAUCCUUUUUUAAAAAAAUAAAUACACAUAAUGUAUAUUAAAAGAGGUGGGAUGAAAUAAUUUCCGUAAUUAUGUGUACAGAUGAAACAUUUUUGUCAUGGAAUUUAAAAGCUAAGUAAGUAUACAACAGAGGAUUGAGCAUCA
B3: chr21:44330462:44330919:-|CDS|ENSG00000160226|control|control|control (ssRNA)
RNA: GGGAGUUCUACAGUCCGACGAUCUUCCCUCUCAGCCAGGGAUGCCUCGAGCAGCCACAGGGGCAGGGUGAGUGGCGGGCCGCUAGGGGCCGCGGCUGCCUCUGCCCACUGCACCCACUGCACAGAAACCGUGGGGAGGGAGCACAACAGAGGAUUGAGCAUCA
B4: chr12:6965432:6965572:-|3pUTR|ENSG00000215021|unk|FALSE|unique (ssRNA)
RNA: GGGAGUUCUACAGUCCGACGAUCUGCGAUGGUCCCCCACACCGGUUCCCUGAACCCCUCUUGGAUUAAGGAAGACUGAAGACUAGCCCCUUUUCUGGGGAAUUACUUUCCUCCUCCCUGUGUUAACUGGGGCUGUUGGGGACACAACAGAGGAUUGAGCAUCA
B5: chr1:19339193:19339294:-|3pUTR|ENSG00000077549|msi1|FALSE|unique (ssRNA)
RNA: GGGAGUUCUACAGUCCGACGAUCGAGACCGUGUGGUUUUUGUUCACCCGGGCCCCCCGUCUUCCUCCCUGUCCCCCCAUUUAUAGGCAUAAAAUCCACUGUCUGCCAGCCUCCCUUCCCUCCCACCUUUUUGGUACAUUGGUGCAACAGAGGAUUGAGCAUCA
B6: chr21:43758806:43758907:+|3pUTR|ENSG00000160209|msi1|FALSE|unique (ssRNA)
RNA: GGGAGUUCUACAGUCCGACGAUCACUUUCUUAAUCCAGUUUUUCAAACUUCUCCCUGUAGACCGUAAGGAUGAAUUCCACAAUAGGAUCCUUUUUAAAAUCGAUUUUAAAUUGUUGCCUAGUCCUGCCAAGGUUAUUAUGUGCCAACAGAGGAUUGAGCAUCA
B7: chr5:78475949:78476050:+|3pUTR|ENSG00000085365|msi1|total|mutant (ssRNA)
RNA: GGGAGUUCUACAGUCCGACGAUCACCCACUGAAAAUUAAUAAUGGUACUUAUGAUUAAAAACGCAUUUAAUACUAACUGCAGCCGUUCUUUCAAGAAUCUUCCGAGAUAAGGAUUGCACAUUGGAAAAGUAAACCAUGUUUCACAACAGAGGAUUGAGCAUCA
B8: chr17:58089832:58089920:+|3pUTR|ENSG00000264364|msi1_unk|total|mutant (ssRNA)
RNA: GGGAGUUCUACAGUCCGACGAUCAUUCCACUGAACUGUGAUUCUAUGGCUUGGGGCGGAGGGUGGGGUGGGGAUGCCUUCUUCCGGGGCCCUGAGAUGUGUUUGUCUGUGGUGUGUGGGAGUGGGGAGCAGAUUUGUCUUGCUCAACAGAGGAUUGAGCAUCA
B9: chr12:909583:909684:+|3pUTR|ENSG00000060237|unk|total|mutant (ssRNA)
RNA: GGGAGUUCUACAGUCCGACGAUCCCGCUCUGUCCUUUACUUAUUGAGACACUUUAACUUUUUCCUUUGUAUUUCCAUUGUAUCCGAUAAAUAAAUGUGAAUGUAAAAUUGUAUAAAUUACUGUACUUGAAUACUUCUGUUUCCCAACAGAGGAUUGAGCAUCA
B10: chr13:24434660:24434761:-|CDS|ENSG00000102699|unk|FALSE|unique (ssRNA)
RNA: GGGAGUUCUACAGUCCGACGAUCCCCUCUGCUUCCUCUCCUUUUCAUUUUCAACCUUCCGCAGCCUCUUUGACUGCCAACCUUAGGCUGCCAAUGGCCUCUGCUUUACCUGAGGCUCUUUGCAGUCAGUCCCGGACUACCCCACAACAGAGGAUUGAGCAUCA
B11: ENSG00000198589:be:win_2451|CDS|ENSG00000198589|bound_else_gene|NA|bound_elsewhere_windowed (ssRNA)
RNA: GGGAGUUCUACAGUCCGACGAUCGAUACUAAAAGUAAUUGCGACCCUACUUCGAAAUUCUCCCCAGUGCCCAGAGAGCAUGGAGGUUCGCAGAGCCUUUCUUUCUGACAUGAUUAAACUUUUUAAUAACAGUAGAGAAAACAGCAACAGAGGAUUGAGCAUCA
B12: ENSG00000112146:stop:overlap|stop_codon|ENSG00000112146|stop_codon|NA|stop_codon (ssRNA)
RNA: GGGAGUUCUACAGUCCGACGAUCACACCCCCUUGUUCUUCGCCAGAGUAAGGAGCUACACAGCUUUCUCAGAAAGGCCUCUGUAGAGCCUCAAGUCCAGUCCUCUAUCACUUUUGCAUGAAUUAAAGUAUAUAGCGCAAAAGACAACAGAGGAUUGAGCAUCA
B13: chr9:96387934:96388035:-|3pUTR|ENSG00000165244|msi1|FALSE|unique (ssRNA)
RNA: GGGAGUUCUACAGUCCGACGAUCAAUAUUUUGUAAAUAUGGACUGCACAGUACAGGGUAGAAAACUACAUAUUGUGGGAAGCUAGAUUUUGCAAGUUUAAUGCAUUCAUUGGAAGCAGUUCUCACAGGAAGCACUUUCUGAAUCAACAGAGGAUUGAGCAUCA
B14: chr17:57974666:57974767:-|CDS|ENSG00000136451|msi1|FALSE|bound_elsewhere (ssRNA)
RNA: GGGAGUUCUACAGUCCGACGAUCGAGCAUGAGAAGUCCAGUAAAUGUUUCAAGUGCAGUUAACAUAACCAGCCCAAUGAACAUAGGGCAUCCUGUAACUAUAACCAGUCCAUUAUCCAUGACCUCUCCUUUAACACUCACUACCAACAGAGGAUUGAGCAUCA

biological target: T1, UNK ZnF1-6 (called full-length); assay: nsRBNS (natural sequence RNA bind-n-seq); RBNS binding buffer (assumed for nsRBNS): 25 mM Tris pH 7.5, 150 mM KCl, 3 mM MgCl2, 0.01% Triton X-100, 500 ug/ml BSA, 20 U/ml SUPERase-In, 4 C; UNK is unkempt and MSI1 is Musashi-1; names of the RNAs are library labels; protein concentration not given here; high values mean tight binding

Binder	binding signal [enrichment R]
B1	0.686
B2	0.869
B3	0.583
B4	0.682
B5	1.44
B6	1.16
B7	0.405
B8	1.32
B9	1.02
B10	0.9
B11	0.591
B12	0.367
B13	0.37
B14	0.491
